# Assay results taken from PubChem BioAssay AID624172 (National Center for Advancing Translational Sciences (NCATS), 2012).
# In all, about 380,000 compounds went through this assay and about 25 (0.007%) were called active. Inconclusive means that the source gave no clear call. Such entries were picked first, then a sample of the others. Calls follow the shape of the dose curve; as a rule, active = well fitted activation curve with a large enough effect; inconclusive = small, poorly fitted or top-dose-only effect; inactive = no such curve, though single readings can be large or run the other way. No potency is given beside an inconclusive call; the fits are too rough.
# Biological target: Glucagon-like peptide 1 receptor (Homo sapiens) (UniProt P43220)
# UniProt P43220, sequence (P43220 whole entry, looked up): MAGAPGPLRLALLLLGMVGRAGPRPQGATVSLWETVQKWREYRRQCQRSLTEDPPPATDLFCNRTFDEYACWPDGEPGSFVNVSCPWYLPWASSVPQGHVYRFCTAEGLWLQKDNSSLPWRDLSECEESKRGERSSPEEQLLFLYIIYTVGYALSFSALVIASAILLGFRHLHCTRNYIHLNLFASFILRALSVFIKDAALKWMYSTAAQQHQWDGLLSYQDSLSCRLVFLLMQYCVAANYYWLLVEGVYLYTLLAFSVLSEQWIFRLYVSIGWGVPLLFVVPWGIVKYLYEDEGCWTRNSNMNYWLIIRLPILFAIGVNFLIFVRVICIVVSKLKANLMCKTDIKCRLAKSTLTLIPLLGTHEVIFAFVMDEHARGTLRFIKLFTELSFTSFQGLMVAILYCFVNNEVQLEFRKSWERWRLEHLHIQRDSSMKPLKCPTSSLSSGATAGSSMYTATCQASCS
# Experiment: qHTS of GLP-1 Receptor Agonists; as to activation: % of control where 0% means no effect
# Settings: HEK293 GLP-1R CRE-luciferase, luminescence, 4-6 h, cells express a hypersensitive GLP-1R form; activation: at 45.6 µM (top of the series) unless noted
# Text: The overall goal of this project was to develop a novel assay for discovering small molecule ligands for class B1 G protein-coupled receptors (GPCRs). Very few agonists (or inverse agonists) with generally weak activity for this entire group of physiologically important receptors are known to date. To establish proof-of-principle that this critical bottleneck can be overcome with a suitable screening approach, our studies focused on the class B1 receptor for glucagon-like peptide-1 (GLP-1R), a potential therapeutic target for diabetes and neurodegenerative disease.
# The assay was developed in a "mix and measure" format using a cell-based functional readout. Toward this goal, stably transfected HEK293 cell clones were established that co-express (i) a cAMP-responsive luciferase reporter gene, and (ii) GLP-1Rs that upon ligand interaction either stimulate (agonists) or inhibit (inverse agonists) luciferase activity. In different cell lines to be used for screening, expressed GLP-1Rs are specifically optimized for high sensitivity detection of either weak agonists (hypersensitive receptor) or inverse agonists (constitutively active receptor mutant). In addition, control cell lines were developed that express either the cAMP-responsive reporter gene without recombinant GLP-1Rs (enabling initial exclusion of GLP-1R independent effects of candidate probes), or the reporter gene together with wild type GLP-1Rs (for confirmation of probe activity at this receptor), or the reporter gene in combination with the constitutively active orphan receptor GPR119 (enabling initial exclusion of GLP-1R independent inhibitory effects of candidate inverse agonists).
# To that end, this assay was optimized for 1536-well format and screened against the MLSMR.
# NIH Molecular Libraries Probe Production Network [MLPCN]
# NIH Chemical Genomics Center [NCGC]
# PI Name: Martin Beinborn, Tufts Medical Center
# In a white solid 1536-well plate, 6 uL of cells are dispensed in DMEM without phenol red, 10% Nu serum, and 1% pen-strep medium. The plates are then incubated for 12 hours at 37 deg C at 5% CO2 before 23 nL of compounds are added. After a 4-6 hr incubation at37 deg C and 5% CO2, 3 uL of detection reagent are added and after a 12 min incubation at RT, a luminescent read is obtained on the ViewLux.
# Potency is read from the fitted curve at half-maximal effect; tags tell the direction and shape of the fitted curve.
SMILES,Potency,activation
COc1ccc(-c2nn3c(-c4ccccn4)nnc3s2)cc1OC,"inconclusive [activator, single point]",–
Cc1ccc(CNc2cc(-c3nn4c(C)nnc4s3)ccc2C)s1,"inconclusive [activator, partial curve]",–
COc1ccc(C(=O)c2sc(Nc3ccccc3F)nc2N)cc1,"inconclusive [activator, partial curve]",–
Oc1ccc(N=Cc2ccc(-c3cccs3)s2)cc1,"inconclusive [activator, partial curve, poor fit]",–
CC(=O)Nc1cc(-c2ccccc2F)cn2c(-c3ccccc3)cnc12,"inconclusive [activator, partial curve]",–
CC(C)CCOc1ccc(C2=NNC(=O)CC2)cc1,"inconclusive [activator, partial curve, poor fit]",–
O=C(O)c1ccc(Nc2ccc([N+](=O)[O-])c3nonc23)cc1,–,inactive: 14.6%
COc1ccc(-c2nnc(COc3ccc4ccccc4c3)o2)cc1OC,"inconclusive [activator, single point]",–
CN(C)CCn1c(=O)n(Cc2ccco2)c(=O)c2c3c(sc21)CCCCC3,"inconclusive [activator, single point]",–
CCOC(=O)c1c(NC(=O)COC(=O)Cc2n[nH]c(=O)c3ccccc23)sc(C(=O)N(C)C)c1C,"inconclusive [activator, full curve]",–
Cc1ccccc1OCC(=O)O/N=C(\N)Cc1cccs1,–,inconclusive: 44.5% [activator]
C=CCN=c1scc(-c2ccc(F)cc2)n1/N=C/c1ccccn1,"inconclusive [activator, partial curve]",–
N#C/C(=C\c1ccc(N2CCOCC2)o1)C(=O)NC1CCCCC1,"inconclusive [activator, partial curve, poor fit]",–
CC(C)(C)n1cnc2cc(NCc3ccc(Br)cc3)ccc21,"inconclusive [activator, partial curve, poor fit]",–
OCCNc1nc(-c2ccccc2)c2cc(Br)ccc2n1,"inconclusive [activator, single point]",–
CSc1cccc(NC(=O)CSc2ccc(C)cc2)c1,–,inactive: 6.79%
CCOC(=O)c1oc2ccccc2c1COC(=O)CNC(=O)c1ccccc1OC,"inconclusive [activator, single point]",–
COc1cc2c(cc1OC)CN(C(=O)CCCN1C(=O)c3ccccc3C1=O)CC2,"inconclusive [activator, partial curve, poor fit]",–
CCOc1cc(/C=N/NC(=O)CSc2cccc3cccnc23)ccc1O,"inconclusive [activator, partial curve]",–
CCCN(c1ccc(C)cc1)c1nc(=O)c2cccnc2s1,"inconclusive [activator, single point]",–
C#CC(CC)(CC)NC(=S)Nc1ccc(S(N)(=O)=O)cc1,"inconclusive [activator, single point]",–
CC1Cc2cc(-c3csc(N)n3)ccc2O1 (stereo not drawn),"inconclusive [activator, partial curve, poor fit]",–
COc1ccc(N2CCN(Cc3nc(-c4ccccc4)no3)CC2)cc1,–,inactive: 9.94%

SMILES,Potency,activation
COc1ccc(-c2nn3c(COc4ccccc4)nnc3s2)cc1OC,–,inconclusive: 62.5% [activator]
Cc1cccc(-c2ncc(S(=O)(=O)C(C)(C)C)c(N)n2)c1,"inconclusive [activator, partial curve, poor fit]",–
CCOc1ccc(C(C)=O)cc1Cn1nc(C(=O)O)c2ccccc2c1=O,"inconclusive [activator, partial curve, poor fit]",–
Cc1onc(-c2ccccc2Cl)c1C(=O)N[C@@H]1C(=O)N2[C@@H]1SC(C)(C)[C@@H]2C(=O)O,"inconclusive [activator, partial curve, poor fit]",–
N#Cc1sc2nc(C3CC3)cc(-c3ccccc3)c2c1N,"inconclusive [activator, full curve, poor fit]",–
COc1ccccc1-c1nnc2n1N=C(c1ccc(OC(F)F)c(OCC3CC3)c1)CS2,"inconclusive [activator, partial curve]",–
O=C(/C=C/c1cccc([N+](=O)[O-])c1)Nn1c(-c2ccccc2F)nc2ccccc2c1=O,"inconclusive [activator, partial curve, poor fit]",–
Cc1ccc(S(=O)(=O)c2nc(-c3ccco3)oc2SC(C)C)cc1,"inconclusive [activator, single point]",–
CCOC(=O)c1ccc(S(=O)(=O)NC2CCCCCCC2)n1C,"inconclusive [activator, partial curve, poor fit]",–
CC(C)COC(=O)c1cc(=O)[nH]c2ccccc12,"inconclusive [activator, single point]",–
COc1nc(-c2ccccc2)c2c(c1C#N)CC(C)(C)OC2,"inconclusive [activator, partial curve, poor fit]",–
CCCNC(=O)OCC12CC3CC(CC(C3)C1)C2,"inconclusive [activator, partial curve, poor fit]",–
COc1ccccc1NC(=O)C(C)N(C)CCOc1ccccc1 (stereo not drawn),–,inactive: 17.1%
CC(=O)CC1OC(=O)C(Br)=C1NCc1ccccc1 (stereo not drawn),–,inactive: -12.6%
Cc1ccc(C)c(N2N=C(C(=O)NCCN3C(=O)S/C(=C\c4cccnc4)C3=O)CCC2=O)c1,–,inconclusive: 36.5% [activator]
CC(C)Cc1ccc(CC(=O)O)cc1,–,inactive: -0.693%
CSc1ccc(CN2CCC(C)(Oc3cccc(C#N)c3)C2)cc1 (stereo not drawn),–,inactive: 6.18%
CC(C)C[C@H](NC(=O)OC(C)(C)C)c1nnc(SCc2ccccc2)o1,–,inactive: 0.401%
COc1ccc(N2C(=O)c3ccccc3NC23CCCCC3)cc1,–,inactive: -2.67%
Cc1csc2nc(CNC(=O)c3cccc(C(F)(F)F)c3)cn12,"inconclusive [activator, single point]",–
CC(C)(C)C(=O)c1cnc(Nc2ccccc2)s1,"inconclusive [activator, single point]",–
COc1ccc(C(C)=O)cc1COC(=O)c1ccc(N)c([N+](=O)[O-])c1,"inconclusive [activator, partial curve]",–
CC(C)COc1cccc(C(=O)NC(=S)Nc2cccc(NC(=O)c3ccccc3Cl)c2)c1,–,inactive: 1.3%

SMILES,Potency,activation
O=C(Nc1ncccc1Cl)C1COc2ccccc2O1 (stereo not drawn),"inconclusive [activator, single point]",–
CCC(C)(C)NC(=O)C(c1ccc(C)cc1)N(Cc1cccs1)C(=O)c1ccc2c(c1)OCCO2 (stereo not drawn),–,inactive: 0.671%
COc1ccc(-c2ncc3ccccn23)cc1OC,"inconclusive [activator, single point]",–
CCCOc1ccc(N2C(=O)CC(N3CCN(CCN=CC4C(=O)CC(C)(C)CC4=O)CC3)C2=O)cc1 (stereo not drawn),–,inconclusive: 41% [activator]
Cc1ccc(C(C#N)=Cc2ccc3c(c2)OCO3)cc1,–,inactive: -0.0811%
COc1ccc(C(=O)/C=C/C(=O)N(CC(=O)NC2CCCCC2)Cc2ccccc2OC)c(O)c1,–,inactive: 8.02%
COc1cc2c(cc1OC)CN(C(=S)Nc1ccccc1)CC2,–,inactive: 0.686%
CCCCCC(=O)c1c(C)[nH]c(C(=O)OCC)c1C,"inconclusive [activator, partial curve, poor fit]",–
Cc1ccc(-c2cc(=O)c3cc(F)ccc3[nH]2)cc1,–,inactive: 0.597%
C=CCn1c(C)nc2c(sc3nc4c(cc32)COC(C)(C)C4)c1=O,"inconclusive [activator, partial curve, poor fit]",–
COCCNc1nc(CSc2ccccc2)nc2sc(C)c(C)c12,"inconclusive [activator, partial curve, poor fit]",–
C/C(=N\NC(=O)C1CCCC1)c1ccc(C(C)C)cc1,"inconclusive [activator, single point]",–
CC1CCCN(c2nc(N(C)c3ccccc3)nc(N)c2[N+](=O)[O-])C1 (stereo not drawn),"inconclusive [activator, single point]",–
CCn1c(-c2cc(-c3ccc(C)cc3)nc3ccccc23)n[nH]c1=S,"inconclusive [activator, single point]",–
CC1CN(c2nc(Nc3ccccc3F)nc(N)c2[N+](=O)[O-])CC(C)O1 (stereo not drawn),"inconclusive [activator, partial curve, poor fit]",–
COc1ccc(OCC(=O)N2c3ccc(C)cc3C3CN(C)CCC32)cc1 (stereo not drawn),–,inactive: 7.2%
COc1ccc(/C=C2/N=C3CCCCCN3C2=O)cc1OC,"inconclusive [activator, single point]",–
CCn1c2ccc(F)cc2c2nnc(NN)nc21,"inconclusive [activator, partial curve, poor fit]",–
CCOc1ccc(C(=O)c2nc3c(n2O)CCCC3)cc1,"inconclusive [activator, single point]",–
CN(C)C(=O)CNc1ccn2nc(-c3cccc(Cl)c3)cc2n1,–,inactive: 16.5%
CN1CCN(c2ncnc3c2ncn3[C@H]2CN(C)C[C@@H](CO)O2)CC1,–,inconclusive: 60% [activator]
Cn1c(=O)[nH]c(=O)c2c1nc(SCCCO)n2CCCc1ccccc1,"inconclusive [activator, partial curve, poor fit]",–
